Test results published in the RNAGym collection of RNA variant scans (doi:10.7554/elife.90254).
Read counts are not given, so values of variants with three or more changes are uncertain.

B1: OR4K15 (parent)
chain: GUUAACGGUCAUAGGCCAUGGAAACUAGGAGCACCAUUUCGCUGCCAGUGAAGAAAUGAACAAAGAAAAUCUGGGCCAGGCAGGCAUCAAAAGAAAUAGUCUUGCGCUCAACCAGAAAGUCUGUAAUCAUUUUAAGGGUA

Variants of: B1
Assay: self-cleavage, relative activity (ratio to wild type); higher = more cleavage; in vitro, sequencing; the parent is a self-cleaving ribozyme

Variant	self-cleavage
A30C A36G U38C A69G	1.6
A11G C17U A30G A52U A67G	0.9
A110U A117C G138A	0.35
A68G A95G G115U	0.31
A67G A92U A118G	1.52
A23G A55G A89C	0.85
U37C A90G U108A	0.02
A11G A33G A56G U122A	0.36
A33G A47U U102C	1.32
A60G U97C U103C	0.82
A18G U19C U49A	0.78
A94G U108C U122C	0.01
G106A A111G U133C	0.02
U43C A47G A52G	0.79
U2C A67G A111U	0.16
U38C A91G A95G G115A	0.38
U39C A56G A86G A114U U120C	0
A56G A59U A111G	0.02
A36G U37C A63G	0.93
A5C C16A A82G	0.56
A5G A78U A98G	0.19
A68U A78G A129G	0.19
A30G A33G U102C	1.15
A13G A60G U103C G106A	0

Variant	self-cleavage
U12C A36G U43C A82G A95U	0.24
U108G U120C U124A	0
A18G A89C A117G	1.39
A24G U43C A116C G138A	0.05
U9C A23U A68G U87C A114G	0.77
G65A G73A A89U A90U A117G	0.06
A27U A126U A135G	1.5
A18U U43C A51C A116G	1.14
A5U U12C G58A U120C	2.34
A24C A66G U132C	1.44
U70C U102C U124C U127C	0.32
A27G G44A U49A A55G	1.78
A36G A55G U70C	0.33
A27G A67G A94G	0.85
C6A G7C A78U	0.68
A24G C32U A36U A62G A86G U103C	0.39
U49C A82G A96G	0.34
A5G A54G A67G U72C A117G	0.05
A51G U72A A86U U102C	0.77
A30U U43C A62G A94G G106U	0.04
A63C A96G A98G	0.73
U49C A69C A82G A92G	0.27
A5U A36U A68C	1.29
C6U A59C G115A	0.07

Variant	self-cleavage
A67G A91G A126G	0.4
A59U A68G U102G A116U	0.1
A60G C112U A114G	0.01
U72A A96G U100C U108C A140G	0
U39C A90G U120C	0.46
U57A A66U A126G	0.82
U9C A116G U131C	0.29
A60G A126G U132C	1.31
U2C A23G A95G	1.48
A24U A30G U127C	0.57
A59U A82G A89U	0.33
A67G A82U U139A	0.15
U39A C46A A67G	0.62
A69U A116G U127C A129G U130G	0.25
U3C A11G A22G A94G	1.15
A62U A63G A118G	0.7
U9C U19C A90G A111U	0.07
A18G G20A G84A U122A	1.42
G20A A68G A69G U70C U108C A110U	0.01
A63G U102A A135U	1.58
U39C U43C A54U C101A	0.12
A24U A56G A86G U132C	1.22
U12G A33G A63G U131C G136C	1.14
G14A A18G A47C A55G	1.23

Variant	self-cleavage
C17U A86G A95G	1.27
A18G A47G A67G U122C	0.38
A33G U70C A78U A92U	0.13
A30G U39C A126G	2.34
A27U U39A U57C A78C A98G	0.18
U39C U49C A52G A56C A62U A86G G93U A129G	0.82
U97A A116G U127C	0.17
G28A U49C A78U	0.39
A47G A68G U130C	0.52
U38A A64G A86U U122C	1.09
U43G U49C A54G A59G U87C U100C	1.42
U2A A5G A54G A110G U130C	0.22
U2C A69G A90G A110G A118G U132C	0.06
A18U U122C A125G	0.37
A18U U57C A60G G119U	2.07
A55G A68U U139C A140G	1.62
U12C U37C A69G U108C	0.02
A4G A95G A129U	0.65
A27G A33U A118G	1.59
U3C A89U U102C	1.71
A86G A96G U132C	1.33
A18G U43C U57C A66U U102C	1.87
A23G U122C U132A	0.48
A92G U100C A118G A135G	2.23

Variant	self-cleavage
A18C A51G U70C U108C C128U	0.03
A52G A68G A89U	1.81
A11G A23G U37C A62G A96G A114G	0.28
A23G A125G U133C	0.56
A5G A90G U102C	1.21
A22G U39C A59G A82G U131C	0.31
U3C A24G A55G A64G U108C C109A A125G U127C	0
A56G A67G A68U U70G A111G	0.07
U70C U72C U108C	0.01
U19C U49C A69U	1.38
G14A U38C A90G A96G	0.9
A22G U49C A90G U122C	0.69
U9C A95U A110G A117U U127C	0.08
A51G A63G G80U	0.14
U2C A69G U100A	0.57
U2C U9C U102C A114G	0.9
C85A U122A G138A	1.94
A33U U43C A59U	1.52
U19C A36G U100C A114G	1.3
U37C A52G U131C	1.03
U2A G31A A63G A114U	0.06
A22G U39C A56G A69G A140G	1.31
A68G G79A A114G	0.03
C40U A54G G79A U108C A110G	0.01

Variant	self-cleavage
A59U A67G U100C U122C	2.57
A55G A59G A62U	1
A22G U38C A90G A98G A126C	0.11
U39C A59G A68G A110G	0.06
U49A A59G A111U	0.07
G20U A56G U72C U103G U127A	0.01
A11G A64G A69G	1.48
U3A A5G A86U	1.15
A22G A116G U124C	0.23
U38C A63G A64G	1.42
A63G A68C A96G U122C U127C U139C	0.36
A67G A86G A98G U103A U132C	0.05
A18U G74A A91G A98U U108C A110G	0.01
C6U A51U A54G A60G	0.79
A60G A62G A69G	1.22
A62G A89G U108C	0.02
A54U G74U U120C	0.12
U38C A55G A90G U100C A116G A129G	1.28
G7A A54G A67G C109A	0.31
U9C C109A A116G U122C A140G	0.14
A11G U87A A94U	1.46
A24C U26C A59G A125G	0.39
G31U A86G U127C	0.39
A5G A67G A95G A98G U102C	1.76

Variant	self-cleavage
A33U A52G U72A U108C A135U	0.01
A63U A69U A78G A117G	0.22
U43A A82G A110C U122A	0.05
U38C U57G A78U	0.27
U39C A66G U103C	0.7
A11C A23G U26C U38A A60G A66G	1.1
U39C A51U A62G A78G A118U	0.12
A11U A94G A96G A118G	1.2
U2A A18G U87C	1.4
U43C A51U A64G A69G A114G	0.19
A59G A98G U100G A135G	0.93
A24U U39A G41C A59G U102C	0.63
U2C A22G C105U U131C	0.12
A33G A52G A62G	0.7
G15A A23G C71U U102A A117G A140G	0.17
A27U A91G A92G U108C	0.01
A5G U49G A66G U72C U120C	0.11
U72C A82G A114C U127C	0.01
U43C A62G A69U U100C	2.02
A60C A82U U108C	0.01
U2C A69G A96G C112U	0.04
U43G U108C U122A	0.01
U38C G84A A95G	2.73
